The source of these data is patent publication US7807153 (Genentech, dated 2010).

In test [1] the target is T1, lymphotoxin-alpha (Genentech, Inc.) (UniProt P01374 35-205, limits assumed).
T1 sequence (looked up): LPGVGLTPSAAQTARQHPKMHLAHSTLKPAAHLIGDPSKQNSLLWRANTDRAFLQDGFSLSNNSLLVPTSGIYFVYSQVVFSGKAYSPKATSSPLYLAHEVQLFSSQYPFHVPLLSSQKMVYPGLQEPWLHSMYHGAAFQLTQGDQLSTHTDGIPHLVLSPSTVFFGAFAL
Put plainly: BIACORE.

The target in test [2] is T2, Fas/Apo-1 ligand (Alexis Biochemicals) (UniProt P48023 103-281).
T2 sequence (looked up): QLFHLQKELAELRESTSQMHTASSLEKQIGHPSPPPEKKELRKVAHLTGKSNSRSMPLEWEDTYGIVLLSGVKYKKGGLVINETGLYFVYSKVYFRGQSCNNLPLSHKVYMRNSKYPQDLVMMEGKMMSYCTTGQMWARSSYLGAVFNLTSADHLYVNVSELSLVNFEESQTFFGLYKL
Kind of test: BIACORE. A general note: SPR reads the build-up and loss of mass on a sensor chip optically.

Test [3] concerns the target TNF-alpha (Genentech, Inc.) (UniProt P01375 partial chain). Kind of test: BIACORE.
Test [4] concerns the target T3, poly-histidine-tagged soluble Apo-2L (UniProt P50591 114-281).
T3 construct: Soluble form; also called Apo-2 ligand; TRAIL; not shown: poly-histidine tag
Kind of test: BIACORE, Apo-2 ECD purified with anti-Flag beads.

T3 sequence (P50591 114-281 limits assumed): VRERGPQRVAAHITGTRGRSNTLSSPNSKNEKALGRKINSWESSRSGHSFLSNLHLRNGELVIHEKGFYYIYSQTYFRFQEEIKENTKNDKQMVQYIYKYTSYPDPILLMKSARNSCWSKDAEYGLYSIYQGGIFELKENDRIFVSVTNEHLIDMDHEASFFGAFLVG
Sequence of UniProt P01375 (P01375 77-233 limits assumed): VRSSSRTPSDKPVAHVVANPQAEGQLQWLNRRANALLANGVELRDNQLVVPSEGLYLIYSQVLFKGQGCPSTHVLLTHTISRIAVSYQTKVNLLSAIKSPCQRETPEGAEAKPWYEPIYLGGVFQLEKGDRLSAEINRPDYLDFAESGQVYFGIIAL

B1: Flag epitope-tagged Apo-2 ECD (receptor, not shown: small tags and cut ends)
chain: not shown
notes: Expressed in human 293 cells; Residues 183 and 184 belong to the predicted transmembrane region and were kept for flexibility; also called Apo-2 ECD-Flag; soluble Apo-2 ECD
Usually Kd stands for a measure of binding affinity in units of concentration. A low value points to higher affinity. Regarding B1, the binding result in test [1], in test [2] and in test [3] was “no binding” throughout. Further, in test [4], the Kd is roughly 1 nM.
